The values below come from publication PMC4336329 (PLoS ONE, 2015).

Hit rate of the full screen: of about 310,000 compounds, about 14,000 (4.5%) showed an effect of 50% or more. Effects have a minus sign here. This is one part of the list.
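Also: peak tail current of the secondary pulse compared with the same well before compound.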

In the assay the target is human ether-à-go-go-related gene (hERG) potassium channel (human, UniProt Q12809). The assay can be described thus: primary screen, population patch clamp on CHO cells stably expressing hERG.
Chain of human ether-à-go-go-related gene (hERG) potassium channel (Q12809 whole entry, looked up): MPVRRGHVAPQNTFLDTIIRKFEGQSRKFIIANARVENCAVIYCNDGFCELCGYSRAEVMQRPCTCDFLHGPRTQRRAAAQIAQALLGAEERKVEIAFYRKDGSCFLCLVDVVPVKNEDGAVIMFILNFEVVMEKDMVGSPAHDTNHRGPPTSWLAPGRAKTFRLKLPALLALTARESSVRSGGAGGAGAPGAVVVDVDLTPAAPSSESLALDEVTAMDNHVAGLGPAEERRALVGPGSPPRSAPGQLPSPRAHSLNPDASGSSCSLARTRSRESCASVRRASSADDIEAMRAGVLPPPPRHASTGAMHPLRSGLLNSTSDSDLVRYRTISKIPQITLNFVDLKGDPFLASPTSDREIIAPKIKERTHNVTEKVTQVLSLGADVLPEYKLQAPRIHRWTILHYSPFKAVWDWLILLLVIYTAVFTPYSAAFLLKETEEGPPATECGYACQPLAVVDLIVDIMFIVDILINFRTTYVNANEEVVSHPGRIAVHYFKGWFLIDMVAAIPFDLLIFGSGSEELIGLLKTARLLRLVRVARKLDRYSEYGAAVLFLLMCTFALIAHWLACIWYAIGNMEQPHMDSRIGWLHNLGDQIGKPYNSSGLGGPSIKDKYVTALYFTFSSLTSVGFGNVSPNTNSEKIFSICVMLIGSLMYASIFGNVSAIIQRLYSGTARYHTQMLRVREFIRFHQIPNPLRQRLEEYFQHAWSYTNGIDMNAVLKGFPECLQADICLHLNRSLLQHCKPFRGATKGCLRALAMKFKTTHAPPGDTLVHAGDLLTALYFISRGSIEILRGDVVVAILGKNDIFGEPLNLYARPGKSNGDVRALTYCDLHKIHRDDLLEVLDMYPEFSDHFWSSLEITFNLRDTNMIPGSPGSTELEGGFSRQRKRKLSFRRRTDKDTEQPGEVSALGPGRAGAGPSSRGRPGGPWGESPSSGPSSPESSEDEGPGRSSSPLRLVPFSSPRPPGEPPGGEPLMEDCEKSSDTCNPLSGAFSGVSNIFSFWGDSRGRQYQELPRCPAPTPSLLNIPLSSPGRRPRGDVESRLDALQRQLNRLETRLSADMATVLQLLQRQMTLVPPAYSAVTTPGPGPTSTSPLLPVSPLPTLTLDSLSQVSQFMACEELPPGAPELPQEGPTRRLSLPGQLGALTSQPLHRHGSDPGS
For `COc1cccc(-c2nn(-c3ccccc3)cc2/C=C(\C#N)C(=O)NCCCn2ccnc2)c1`, the “hERG current change (%, negative = inhibition) at 10uM” value was -38.8%. `COc1cccc(C(=O)Nc2ccc(S(=O)(=O)Nc3onc(C)c3C)cc2)c1`: the “hERG current change (%, negative = inhibition) at 10uM” value came to 22.3%. In the case of `CCCCn1c(SCC(=O)OCC)nnc1-c1ccoc1C` it was 8.76%. The same measure for `O=C(NCCN1CCOCC1)c1cc2ccccc2[nH]1`: 5.13%; for `NCCc1ccc(O)cc1`: -5.78%. On to `O=C1c2ccccc2C(=O)N1CC1CCCO1` (stereo not drawn), for which the “hERG current change (%, negative = inhibition) at 10uM” value was 8.48%. The same measure for `Oc1ccc2ccccc2c1C=Nc1cc(C(F)(F)F)ccc1N1CCCC1`: 4.96%; for `Nc1c(C(=O)O)cnn1-c1ccccc1`: 7.29%; for `CC(=O)Nc1ccc(CN2CCC(n3nccc3NC(=O)CCc3ccccc3)CC2)cc1`: -5.87%. The same measure for `Cc1ccc2nc(N(CCCN(C)C)C(=O)COc3ccc(Cl)cc3)sc2c1.Cl`: -8.71%. As to `Cc1ccccc1C(=O)Nc1nnc(SCC(=O)NC2CC2)s1`, the “hERG current change (%, negative = inhibition) at 10uM” value is on record as 9.97%. In the case of `O=C(CNC(=O)c1ccc(Br)o1)NCC1CCCO1` (stereo not drawn) it was 9%; in that of `O=C(NC1CCN(C(=O)Nc2ccccc2Cl)CC1)c1ccco1`, -0.0116%; in that of `COC(=O)[C@H](CCSC)NC(=O)Nc1ccc(C)c(C)c1`, -83.6%. As to `O=C(Nc1c(C(=O)O)[nH]c2ccccc12)c1cccc(C(F)(F)F)c1`, the “hERG current change (%, negative = inhibition) at 10uM” value amounted to 20.8%. The same measure for `Cc1ccc2c(c1)C1CN(C)CCC1N2C(=O)/C=C/c1ccc2c(c1)OCO2` (stereo not drawn): -62.6%; for `O=C(c1ccc2c(c1)OCO2)N(CC1CCCO1)C1(C(=O)NC2CCCC2)CCCCC1` (stereo not drawn): 0.673%. In the case of `CCOC(=O)Cc1cc(=O)n(-c2nc3ccccc3s2)[nH]1` it was 5.12%; in that of `Cc1c(Cl)cccc1NC(=O)C1CC2CCC1C2` (stereo not drawn), 10.5%; in that of `O=C1CCN(S(=O)(=O)c2ccccc2)CCN1CCOCc1ccc(Cl)cc1`, -25.6%. The same measure for `C/C(CC(=O)NCCCN1CCOCC1)=N\NC(=O)COc1cccc2ccccc12`: -6.9%. For `CC(C)=C1SC(N2CCN(Cc3ccccc3)CC2)=NC1=O`, the “hERG current change (%, negative = inhibition) at 10uM” value is listed as -6.87%. The same measure for `Cc1ccc(NC(=O)c2ccc(S(=O)(=O)N3CCCCCC3)cc2)nc1`: 9.2%; for `CNC(=O)Nc1cc(C(F)(F)F)cc(C(F)(F)F)c1`: 14.3%; for `COc1cccc(CNC(=O)c2ccncc2)c1`: 20.8%.

Regarding `CC(C)(C)N(CC#CCC1(O)c2ccccc2-c2ccccc21)CCO`, the “hERG current change (%, negative = inhibition) at 10uM” value amounted to 24.2%. The same measure for `COc1ccc(CCNC(=O)CSc2nnnn2Cc2ccc3c(c2)OCO3)cc1OC`: -4.15%; for `CC(=O)Nc1ccc(OCC(O)CN2CCCCC2C)cc1.Cl` (stereo not drawn): 3.85%; for `COc1ccc(CN(CC(=O)NC2CCCC2)C(=O)CCC(=O)Nc2nccs2)cc1`: -11.7%. In the case of `CCS(=O)(=O)c1ncc(Cl)c(C(=O)Nc2ccc(S(=O)(=O)N3CCCC(C)C3)cc2)n1` (stereo not drawn) it was 10.7%; in that of `O=C1CCC(=O)N1CC(=O)N1c2ccccc2Sc2ccccc21`, 3.19%.

With `Cc1ccc(S(=O)(=O)N2CC=C(c3c(C)n(C)c4ccccc34)CC2)cc1`, the “hERG current change (%, negative = inhibition) at 10uM” value is on record as 8.88%. Consider `O=C(Cc1coc2ccc3ccccc3c12)N1CCCC1`, for which the “hERG current change (%, negative = inhibition) at 10uM” value is reported as -6.75%. The same measure for `O=C(Cc1c(F)cccc1Cl)Nc1cc(S(=O)(=O)N2CCCCC2)ccc1N1CCOCC1`: -52.2%; for `CCCOc1ccc(N2C(=O)CC(SCc3nc4ccccc4[nH]3)C2=O)cc1` (stereo not drawn): -41.2%; for `Cc1cc(NC(=O)c2ccoc2C)no1`: 5.83%. Consider `CCc1ccccc1Nc1nc(N)nc(COC(=O)CCNS(=O)(=O)c2ccccc2)n1`, for which the “hERG current change (%, negative = inhibition) at 10uM” value was -62.7%. The same measure for `O=[N+]([O-])c1ccc(NCCOc2ccccc2Cl)nc1`: -1.09%; for `CCOC(=O)C1(Cc2cccc(F)c2)CCN(C(=O)Cn2cnnn2)CC1`: -6.4%.

On to `COc1cccc(OC2OC3COC(C)(C)OC3C(O)C2NC(C)=O)c1` (stereo not drawn), for which the “hERG current change (%, negative = inhibition) at 10uM” value is on record as 7.26%. In the case of `O=C(NCCN1C(=O)S/C(=C\c2ccc(OC(F)F)cc2)C1=O)c1cnccn1` it was -57.1%. The same measure for `COCCn1c(C(C)C)nc2sc3ccccc3c(=O)c2c1=O`: -3.9%. In the case of `CN1CCN(c2cc(C(F)(F)F)nc3ccc(F)cc23)CC1` it was -9.27%; in that of `Cc1nc2ccccc2nc1CN1CCN(Cc2ccc(F)c(F)c2)C(CCO)C1` (stereo not drawn), -40.4%. As to `COc1ccc(CNC(=O)CN(C(=O)CCC(=O)Nc2ccccn2)c2ccc3c(c2)OCO3)cc1`, the “hERG current change (%, negative = inhibition) at 10uM” value is reported as -2.13%.
